Results: PubChem BioAssay AID1508623 (National Center for Advancing Translational Sciences (NCATS), 2021)
In all, about 48,000 compounds went through this assay and about 450 (0.94%) were called active. This list was built around the results that the source calls inconclusive (neither active nor inactive); the mix of calls is not that of the screen. The call rests on the fitted dose curve; in most records, active means well fitted inhibition curve with a large enough effect; inconclusive means small, poorly fitted or top-dose-only effect; inactive means no such curve, though single readings can be large or run the other way. A potency beside an inconclusive call is a rough fit, not a confirmed value.

Assay: Primary qHTS for Identification of Small Molecule Inhibitors of Huntingtin Promoter Activity; further: nearly all actives have a fitted effect of over 50% in size
Details: HEK293 HTT promoter firefly luciferase reporter (activity 0% = vehicle and -100% = no light), 24 h; activity change, negative = inhibition: at 57.5 µM (top of the series)
Summary of the method: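 Quantitative HTS used concentration series of up to 57.5 uM final on HEK293 luciferase reporter cells, 24 h at 37 degrees C. Readout was Dual-Glo firefly luminescence.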
Potency means the concentration at half of the fitted maximal effect; tags describe the fitted curve by direction and shape.

SMILES | Potency | activity change, negative = inhibition
Cc1ccc(S(=O)(=O)N2CCc3cc(C(=O)Nc4c(C)cccc4C(C)C)ccc32)cc1 | inconclusive: 14.1 µM [inhibitor, partial curve, poor fit] | 
CCOc1ccc(CCNC(=O)c2nn(C)c3c2CSc2ccc(C)cc2-3)cc1OCC | inconclusive: 39.8 µM [inhibitor, partial curve, poor fit] | 
CCOC(=O)c1c(NC(=O)CSc2cn(CCNC(=O)c3ccc(OCC)cc3)c3ccccc23)sc2c1CCC2 | inconclusive: 39.8 µM [inhibitor, single point] | 
CC1Cc2cc(S(=O)(=O)NCc3ccccc3)ccc2N1C(=O)C1CCC1 (configuration not stated) | inconclusive: 25.1 µM [inhibitor, partial curve, poor fit] | 
Cc1ccc(NC(=O)C2CCCN(S(=O)(=O)c3ccc4c(c3)CCCC(=O)N4)C2)cc1N(C)C (configuration not stated) | inconclusive: 28.2 µM [inhibitor, partial curve] | 
O=C1CN(C(=O)c2c(F)cccc2Cl)C(c2ccc(F)cc2)c2cc(Br)ccc2N1 (configuration not stated) | inconclusive: 3.55 µM [inhibitor, partial curve, poor fit] | 
CN(C(=O)CSc1nc2ccc(NC(=O)c3cccs3)cc2s1)c1ccccc1 | inconclusive: 39.8 µM [inhibitor, single point] | 
CCc1ccc(CNC(=O)C2CCN(C(=O)c3ccc(-n4c(C)cc5ccccc54)s3)CC2)cc1 | inconclusive: 39.8 µM [inhibitor, single point] | 
COc1ccc(C(=O)Nc2nc(-c3nnn(-c4cc(OC)ccc4OC)c3C)ns2)cc1 | inconclusive: 39.8 µM [inhibitor, single point] | 
Cc1ccc(OCc2cc(=O)n3c(-c4ccccc4)csc3n2)cc1 |  | inactive: -0.655%
COc1ccc(-c2cc(C(=O)NCc3ccc(C)cc3)c3cc(C(C)C)ccc3n2)cc1 |  | inactive: -19%
O=C1CCSC2(C(=O)N(Cc3ccccc3)c3ccccc32)N1c1ccccc1 (configuration not stated) | inconclusive: 31.6 µM [inhibitor, single point] | 
CC(=O)N1c2ccc(S(=O)(=O)NCC3CCC(C(=O)Nc4cccc(C)c4)CC3)cc2CC1C (configuration not stated) | inconclusive: 17.8 µM [inhibitor, partial curve, poor fit] | 
Cc1cc(S(=O)(=O)NCCc2csc(-c3cccc(F)c3)n2)ccc1F | inconclusive: 35.5 µM [inhibitor, single point] | 
CCCCNC(=O)c1cnc2c(-c3ccc(OCC)c(OCC)c3)c(C)nn2c1-c1ccccc1 | inconclusive: 8.91 µM [inhibitor, full curve, poor fit] | 
CCc1ccc2nc(N3CCC(C(=O)NCCC(C)C)CC3)sc2c1 |  | inactive: -26.9%
CCN(Cc1ccccc1)S(=O)(=O)c1ccc(N2CCCCS2(=O)=O)cc1 | inconclusive: 12.6 µM [inhibitor, partial curve, poor fit] | 
CCc1cccc(C)c1NC(=O)c1cc2ccccc2o1 | inconclusive: 5.62 µM [inhibitor, partial curve, poor fit] | 
O=C(NCc1ccccc1)c1ccc(CSc2nc3cccnc3n2Cc2ccccc2)cc1 | inconclusive: 31.6 µM [inhibitor, partial curve] | 

SMILES | Potency | activity change, negative = inhibition
CCc1ccc(NC(=O)CSC2=Nc3ccccc3C3=NC(CC(=O)NCc4cccs4)C(=O)N23)cc1 (configuration not stated) | inconclusive: 39.8 µM [inhibitor, single point] | 
O=C(Nc1cn[nH]c1-c1nc2ccc(CN3CCOCC3)cc2[nH]1)NC1CC1 | inconclusive: 13.7 µM [inhibitor, partial curve] | 
CC(C)c1ccc(C(=O)CC2(O)C(=O)N(CCc3ccccc3)c3ccc(Cl)cc32)cc1 (configuration not stated) | inconclusive: 39.8 µM [inhibitor, single point] | 
COc1ccc(CN2CCc3nc(N4CCN(c5ccc(F)cc5)CC4)ncc3C2)c(OC)c1OC | active: 1.58 µM | 
O=C(C1CCCCC1)N(Cc1cccnc1)c1nc2ccc(Cl)cc2s1 | inconclusive: 39.8 µM [inhibitor, single point] | 
O=C(Nc1nnc(S(=O)(=O)N2CCCc3ccccc32)s1)c1ccc(Cl)cc1 | inconclusive: 25.1 µM [inhibitor, partial curve] | 
Cc1ccc(SCCNC(=O)CN(c2cccc(C)c2C)S(C)(=O)=O)cc1 | inconclusive: 31.6 µM [inhibitor, partial curve] | 
CC1=C(C(=O)NCc2cccc(Cl)c2)C2(CCCCCC2)OC1=O | inconclusive: 17.8 µM [inhibitor, single point] | 
CCOC(=O)c1c(C)oc2nc(C)nc(NCCc3ccc(OCC)cc3)c12 | inconclusive: 10 µM [inhibitor, partial curve, poor fit] | 
CCN1CCC(N(Cc2ccc(F)cc2)C(=O)Nc2ccc(C)c(F)c2)CC1 |  | inactive: -9.58%
Cc1nn(-c2ccccc2)c(-n2cccc2)c1C(=O)NCCCN1CCN(c2ccccc2F)CC1 | inconclusive: 20 µM [inhibitor, partial curve] | 
CC(=O)N1CCCc2cc(S(=O)(=O)N3CCCC(C(=O)Nc4ccc(F)cc4F)C3)ccc21 (configuration not stated) | inconclusive: 14.1 µM [inhibitor, partial curve] | 
COc1ccc(C(=O)N(Cc2ccco2)Cc2ccccc2F)cc1Cl | inconclusive: 31.6 µM [inhibitor, single point] | 
O=C(NCC(c1ccco1)S(=O)(=O)c1ccc(Cl)cc1)c1ccc(C(F)(F)F)cc1 (configuration not stated) | inconclusive: 39.8 µM [inhibitor, single point] | 
COc1cccc(CC(=O)Nc2c(C(=O)N3CCN(c4ccccc4)CC3)oc3ccccc23)c1 | inconclusive: 25.1 µM [inhibitor, single point] | 
CCOc1ccc(CCNC(=O)c2ccc3nc(N4CCC(C)CC4)sc3c2)cc1OCC | inconclusive: 1 µM [inhibitor, full curve, poor fit] | 
CCN(CCCNC(=O)CN1N=C(c2ccccc2)CCC1=O)c1cccc(C)c1 | inconclusive: 22.4 µM [inhibitor, single point] | 
Cc1ccc(NC(=O)NC(C)c2c(-n3cccc3)sc(C)c2C)c(C)c1 (configuration not stated) | inconclusive: 39.8 µM [inhibitor, single point] | 
